Hit rate of the full screen: of about 150,000 compounds, about 540 (0.36%) showed an effect of 50% or more. Some of the results follow.

Broadly, the % Inhibition is the relative decrease from the control value, in per cent.

The assay concerns Plasmodium falciparum. In words: Primary screen in NF54 nanoGlo assay, in single point, at 2uM, 72h; a lower Z score goes with more inhibition. Conditions: timepoint 72 hour. The class given is functional, Erythrocyte.
With `COc1ccc(COCC(=O)NCc2nn(C)cc2C)cc1`, the “% Inhibition” value was -13% and the Z score is on record as 2.33.

For the compound `CCC(=O)Nc1cc(F)ccc1C(C)=O`, the “% Inhibition” value was -12% and the Z score came out at 1.38.

As for `CCNS(=O)(=O)[C@H]1CCN(C(=O)c2cccc(OC(C)C)n2)C1`, the “% Inhibition” value is given as -14% and the Z score turned out to be 1.86.

With `O=C(O)CCN1CCC[C@H](c2nc(C(F)(F)F)cs2)C1`, the “% Inhibition” value is -4% and the Z score is recorded as 0.39.

Regarding `NC(=O)C1CCCC1NC(=O)c1ccc(C2CCC2)cc1` (centres undefined), the “% Inhibition” value is reported as 9% and the Z score is listed as -1.19.

For the compound `Cc1cc(S(=O)(=O)Nc2nc(C(F)(F)F)c[nH]2)c(C)o1`, the “% Inhibition” value was -6% and the Z score stood at 0.78.

As for `O=C(Cc1ccccc1F)N1CC[C@H]2[C@H](CCCN2CC2CCCCC2)C1`, the “% Inhibition” value is listed as -8% and the Z score was determined as 0.87.

Consider `CCc1c(C(=O)N[C@H]2COC[C@@H]2O)cnn1CCC(C)C`, for which the “% Inhibition” value is -7% and the Z score stood at 1.02.

On to `COc1cccc(CN2C[C@]34C=C[C@H](O3)C(C(=O)N3CCN(C)C(=O)C3)C4C2=O)c1` (some centres undefined), for which the “% Inhibition” value is reported as -2% and the Z score came to 0.23.

In the case of `O=C(C1=Cc2ccccc2OC1)N1CCCS1(=O)=O`, the “% Inhibition” value is -11% and the Z score was determined as 1.33.

As for `O=C(NCCc1c[nH]c2ccccc12)c1c[nH]c(=O)n(Cc2ccco2)c1=O`, the “% Inhibition” value is recorded as -1% and the Z score worked out at 0.24.

As for `CCn1c(-c2cccc(OC)c2)nc2cc(NC(C)=O)cc(C(=O)NCCc3cnccn3)c21`, the “% Inhibition” value is given as 20% and the Z score is listed as -2.51.

With `C[C@@H](Cc1cnccn1)N(C)C(=O)Cc1c[nH]c2ccccc12`, the “% Inhibition” value is reported as -5% and the Z score is on record as 0.89.

As for `COc1cc(CNCc2ccncc2)ccc1OCc1ccc(C)cc1`, the “% Inhibition” value was -1% and the Z score is given as 0.2.

Regarding `O=C(NCc1ccc(Cl)s1)N[C@H](CO)Cc1ccc(O)cc1`, the “% Inhibition” value is on record as -14% and the Z score was 1.93.

For `CCn1ncnc1[C@H](C)NC(=O)Nc1cccc2[nH]nnc12`, the “% Inhibition” value came out at 1% and the Z score is -0.18.

Turning to `CNC(=O)c1cccnc1NCC1(N(C)C)CCCC1`, the “% Inhibition” value is reported as 3% and the Z score was -0.52.

Consider `COCCn1ccnc1CN(C)CCN1CCOCC1`, for which the “% Inhibition” value is -3% and the Z score is reported as 0.61.

Turning to `COCCN(Cc1ccc(C)o1)C(=O)c1ccon1`, the “% Inhibition” value is listed as -6% and the Z score came out at 0.99.

Take `OCC1([C@@H](NCc2ncc(Cl)cc2Br)C2CC2)CCOCC1`: the “% Inhibition” value is on record as -8% and the Z score is listed as 1.31.

For the compound `O=S1(=O)c2ccccc2N(Cc2cccc(C(F)(F)F)c2)c2ccccc21`, the “% Inhibition” value came to 1% and the Z score was -0.14.

Regarding `CCN1CCN([C@H]2CCN(c3nc(-c4ccc(F)cc4)no3)C2)CC1`, the “% Inhibition” value came out at 1% and the Z score is given as -0.16.

`O=C1C[C@@H](c2ccccc2)N(Cc2ccncc2)CCCN(C(=O)CC2CCCCC2)CCN1`: the “% Inhibition” value came out at 2% and the Z score is given as -0.24.

`CN(C)C(=O)c1cccnc1-c1cccc(OCc2ccc(F)cc2)c1`: the “% Inhibition” value is on record as -3% and the Z score is given as 0.51.

As to `CC(C)N1C[C@@H](C(=O)N2CCN(c3ccc(F)c(Cl)c3)CC2)CC1=O`, the “% Inhibition” value came to 8% and the Z score is reported as -1.57.

In the case of `Oc1cc(-c2ccc(Cl)cn2)cc2c1OCCN(Cc1ccco1)C2`, the “% Inhibition” value amounted to 0% and the Z score worked out at 0.07.

For `Cc1ccc(CCC(=O)NCc2cccnc2-c2ccncc2)cc1F`, the “% Inhibition” value was -12% and the Z score is 1.38.

With `Cc1ncn(CC(=O)NCC(=O)N[C@@H](C)c2ccc(F)cc2)c1C`, the “% Inhibition” value is reported as -7% and the Z score is reported as 0.7.

Consider `CCCN(Cc1cc(-c2ccccc2)on1)C(=O)c1ccco1`, for which the “% Inhibition” value is listed as -2% and the Z score was 0.3.

Regarding `COc1ccnc(C(=O)N[C@@H](C)c2nc(C)sc2C)c1`, the “% Inhibition” value is listed as -8% and the Z score was 1.07.

`O=C([C@@H]1C[C@H](Oc2ccccc2)CN1C1CCOCC1)N1CCC(Cc2ccccc2)CC1`: the “% Inhibition” value is reported as -6% and the Z score is recorded as 0.8.

`CS(=O)(=O)N[C@@H]1CC[C@H]2CCOc3ccccc3C(=O)N3CCN(Cc4ccc(F)c(F)c4)C[C@H]3C(=O)NC[C@H]1O2`: the “% Inhibition” value was found to be 4% and the Z score is -0.66.

Regarding `Cc1ccc2[nH]c(=O)c(CN(C(=O)c3ccncc3)C3CCCCC3)cc2c1`, the “% Inhibition” value is on record as -19% and the Z score is 1.98.

Turning to `Cc1cc(C(=O)NC2(CN3CCOCC3)CCCC2)cc(C)n1`, the “% Inhibition” value was -6% and the Z score turned out to be 0.7.

Take `Cc1cnn(CC(C)NC(C)C(=O)NCC2CCCO2)c1` (centres undefined): the “% Inhibition” value is reported as -5% and the Z score is recorded as 0.63.

For `CO[C@H]1CCC[C@@H]1NC(=O)N1CC(F)C1`, the “% Inhibition” value was 2% and the Z score is listed as -0.38.

On to `Cc1cc(O)n2nc(CC(=O)N3CC[C@@](O)(C4CCOCC4)[C@H](C)C3)nc2n1`, for which the “% Inhibition” value was -12% and the Z score came out at 1.16.

Turning to `COc1ccc(-c2nn(-c3ccccc3)c(N)c2NC(=O)NCc2ccccn2)cc1`, the “% Inhibition” value was 9% and the Z score was -1.34.

In the case of `CCCC(=O)NCc1ccc2c(c1)CCN2C(=O)c1ccncc1`, the “% Inhibition” value is listed as -8% and the Z score came out at 0.74.

For the compound `CC1CN(Cc2ccccc2)CC1NC(=O)Cc1ccccc1O` (centres undefined), the “% Inhibition” value is -2% and the Z score was found to be 0.3.

Consider `COc1cc2c(cc1OC)CN(C(=O)Cn1nnnc1C1CCCC1)CC2`, for which the “% Inhibition” value is given as -3% and the Z score was found to be 0.65.

`COc1cc(F)c(CN2CC[C@@]3(CCCNC3)C2)c(F)c1`: the “% Inhibition” value is given as -2% and the Z score turned out to be 0.28.

(Values after ChEMBL document CHEMBL4888484, “Replenishing the malaria drug discovery pipeline: Screening and hit evaluation of the MMV Hit Generation Library 1 (HGL1) against asexual blood stage Plasmodium falciparum ,using a nano luciferase reporter read-out” (2022).)
